Measured values taken from the supplement of paper PMC10326071.
Several values for one entry are separate records, joined by “and”; a condition that tells them apart may be missing. Equal entries are not always repeated. The list shows a part of the results. Most values come without repeats; read them as rough.

What was measured:
[1] = tested on: SARS-CoV-2 nsp3 SARS-unique domain core (SUD-core, nsp3 residues 413-676); assay: dissociation rate constant koff (BLI); higher = faster dissociation; details: 100 µM; 25 °C
[2] = tested on: SARS-CoV-2 nsp3 SARS-unique domain core (SUD-core, nsp3 residues 413-676); assay: apparent dissociation constant Kd (single-concentration BLI fit); higher = weaker binding; details: 100 µM; 25 °C

| Compound | dissociation rate constant koff [1] | apparent dissociation constant Kd [2] |
| --- | --- | --- |
| Cc1nc(Nc2ncc(C(=O)Nc3c(C)cccc3Cl)s2)cc(N2CCN(C(=O)COCCOCCOCCNC(=O)[C@H](CC(C)C)NC(=O)[C@@H](O)[C@H](N)Cc3ccccc3)CC2)n1 | 0.0647 s⁻¹ | 3730 µM |
| NCCCCCCNS(=O)(=O)c1cccc2c(Cl)cccc12 | 0.702 s⁻¹ | 1680 µM |
| Cc1cccc(-c2[nH]ncc2-c2ccc(F)c(-c3cnn(CCO)c3)c2)n1 | 0.252 s⁻¹ | 21200 µM |
| c1ccc(-c2nc3c(c(-n4ccc5cnccc54)n2)CCC3)nc1 | 0.691 s⁻¹ | 113 µM |
| Nc1ncnc2c1c(-c1ccc(Oc3ccccc3)cc1)cn2C1CCCC1 | 0.0212 s⁻¹ | 132 µM |
| CCCC(=O)Nc1ncnc2c1ncn2[C@@H]1O[C@@H]2COP(=O)(O)O[C@H]2[C@H]1OC(=O)CCC | 0.0143 s⁻¹ | 88.7 µM |
| Oc1cccc(Nc2ncc(F)c(Nc3cccc(O)c3)n2)c1 | 1.2 s⁻¹ | 904 µM |
| CC1=C(CC(=O)O)c2cc(F)ccc2/C1=C\c1ccc(C(C)C)cc1 | 0.362 s⁻¹ | 3030 µM |
| Cc1[nH]nc2ccc(-c3cncc(OC[C@@H](N)Cc4ccccc4)c3)cc12 | 0.386 s⁻¹ | 617 µM |
| COc1cccc(OCCCN)c1-c1cc(Nc2cnc(C#N)cn2)n[nH]1 | 0.0355 s⁻¹ | 14.8 µM |
| O=C1NC(=O)/C(=C/c2ccc(-c3ccc(F)cc3O)o2)S1 | 0.165 s⁻¹ | 418 µM |
| Cc1ncc(NC(=O)NC2c3ccccc3-c3ccccc32)c(-c2ccccc2)n1 | 0.685 s⁻¹ | 15400 µM |
| COc1cccc(OC)c1C(=O)OCc1cc(O)ccc1O[C@@H]1O[C@H](CO)[C@@H](O)[C@H](O)[C@H]1O | 1.51 s⁻¹ | 991 µM |
| O=c1ccn([C@H]2O[C@@H](CO)[C@H](O)[C@@H]2O)c(=O)[nH]1 | 0.0198 s⁻¹ | 468 µM |
| O=c1ccn([C@@H]2O[C@H](COP(=O)(O)OP(=O)(O)O)[C@@H](O)[C@H]2O)c(=O)[nH]1 | 0.0116 s⁻¹ | 223 µM |
| Cc1nc(Nc2cnn(C3CCNCC3)c2)nc2c1N(C)C(=O)c1cc3ccccc3cc1N2C | 0.521 s⁻¹ | 13200 µM |
| Cc1cc(Nc2ncc(Cl)c(Nc3ccccc3S(=O)(=O)C(C)C)n2)c(OC(C)C)cc1C1CCNCC1 | 0.0458 s⁻¹ and 0.0643 s⁻¹ | 14100 µM and 12000 µM |
| Nc1cc(Nc2ccc(S(N)(=O)=O)cc2)ncn1 | 0.671 s⁻¹ | 1370 µM |
| COc1ccc2c(c1)c(C1=C(c3c[nH]c4ccccc34)C(=O)NC1=O)cn2CCCN(C)C | 0.187 s⁻¹ | 142 µM |

| Compound | dissociation rate constant koff [1] | apparent dissociation constant Kd [2] |
| --- | --- | --- |
| Cc1cn([C@@H]2C[C@@H](O)[C@H](CO)O2)c(=O)[nH]c1=O | 0.00987 s⁻¹ | 95.4 µM |
| Cc1[nH]c(/C=C2\C(=O)Nc3ccc(S(=O)(=O)Cc4c(Cl)cccc4Cl)cc32)c(C)c1C(=O)N1CCC[C@@H]1CN1CCCC1 | 0.159 s⁻¹ | 7240 µM |
| COc1ccc2[nH]cc(/C=C3\C(=O)Nc4ccc(NC(=O)CCN5CCCCC5)cc43)c2c1 | 0.376 s⁻¹ | 2510 µM |
| Fc1ccc2[nH]ccc2c1-c1nc(N2CCOCC2)c2sc(CN3CCN(CC4CC4)CC3)cc2n1 | 0.411 s⁻¹ | 1340 µM |
| NC(=O)c1ccc2nc(-c3ccc(C4(N)CCC4)cc3)c(-c3ccccc3)n2n1 | 0.375 s⁻¹ | 426 µM |
| O=C(/C=C/c1ccc(O)c(O)c1)c1ccc(O)cc1O | 0.186 s⁻¹ | 223 µM |
| COCCO[C@@H]1[C@H](O)[C@@H](CO)O[C@H]1n1ccc(N)nc1=O | 0.111 s⁻¹ | 4770 µM |
| O=c1[nH]cnc2[nH]ncc12 | 0.0153 s⁻¹ | 1030 µM |
| O=c1[nH]cnc2nc[nH]c12 | 0.0174 s⁻¹ | 122 µM |
| COc1cc2ncnc(Nc3ccc(O)cc3)c2cc1OC | 0.281 s⁻¹ | 242 µM |
| Cn1c(=O)ccn([C@@H]2O[C@H](CO)[C@@H](O)[C@H]2O)c1=O | 1.93 s⁻¹ | 1910 µM |
| Cc1[nH]nc2ccc(-c3cncc(OC[C@@H](N)Cc4c[nH]c5ccccc45)c3)cc12 | 0.213 s⁻¹ | 3270 µM |
| CC[C@@H](N)CNc1ccnc(-c2cc(-c3cnn(C)c3)ccc2O)n1 | 0.0361 s⁻¹ | 25.6 µM |
| COc1ccc2cc1Oc1ccc(cc1)C[C@H]1c3cc(c(OC)cc3CCN1C)Oc1c(O)c(OC)cc3c1[C@H](C2)N(C)CC3 | 0.0743 s⁻¹ | 90.7 µM |
| COc1ccc(C(OC[C@H]2O[C@@H](n3ccc(NC(C)=O)nc3=O)C[C@@H]2O)(c2ccccc2)c2ccc(OC)cc2)cc1 | 0.164 s⁻¹ | 3490 µM |
| Cc1nn(CC(F)(F)F)cc1Nc1ncc(Br)c(NCc2ccc(S(N)(=O)=O)cc2)n1 | 1 s⁻¹ | 799 µM |
| O=C(O)c1ccc2c(c1)nc(Nc1cccc(Cl)c1)c1ccncc12 | 0.62 s⁻¹ | 1470 µM |
| Cc1cc2c(F)c(Oc3ncnn4cc(OC[C@@H](C)OC(=O)[C@H](C)N)c(C)c34)ccc2[nH]1 | 0.0661 s⁻¹ | 7530 µM |
